In the supplement of paper PMC4967469:
IC50 is the fitted dose that halves viability relative to control wells, and lower means more sensitive; where the fit passes the top or lowest dose, that dose stands as a limit. The AUC spans the tested range (256-fold, ending at the top dose) of the same fit; it is 1 without any effect and falls as sensitivity rises. For some assays here: The top dose, if marked as inferred, was derived from the fitted curves, not read from the paper. For some assays here: An entry number marks a drug with two screens in the source, which often give different values.

How the values were obtained:
Experiment in all cases: Viability of human cancer cell lines after 72 h of drug (GDSC screen)
TW-37 = compound: CC(C)c1ccccc1Cc1cc(C(=O)Nc2ccc(S(=O)(=O)c3ccccc3C(C)(C)C)cc2)c(O)c(O)c1O [TW-37]; conditions: top dose 5 µM
Experimental: (§1)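 Human cancer cell lines in 384-well plates, medium with 10% serum, drug for 72 h over a 256-fold dose range (nine 2-fold or five 4-fold steps up to the top dose). Adherent lines were fixed and stained with the nucleic acid dye Syto60, suspension lines read with resazurin; signal relative to control wells, capped at 0 and 100%. One two-parameter sigmoid per drug and line, fitted in a mixed model over all curves with the slope shared within a line.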

Bicalutamide = compound: CC(O)(CS(=O)(=O)c1ccc(F)cc1)C(=O)Nc1ccc(C#N)c(C(F)(F)F)c1 [Bicalutamide]; conditions: top dose inferred
Experimental: as §1

KIN001-270 = compound: Cc1ccc(Nc2cc(-c3cccc(N4C(=O)c5ccccc5C4=O)c3)ncn2)cc1NS(C)(=O)=O [KIN001-270]; conditions: top dose 20 µM; top dose inferred
Experimental: as §1

T0901317 = compound: O=S(=O)(c1ccccc1)N(CC(F)(F)F)c1ccc(C(O)(C(F)(F)F)C(F)(F)F)cc1 [T0901317]; conditions: top dose 10.24 µM; top dose inferred
Experimental: as §1

AUY922 = compound: CCNC(=O)c1noc(-c2cc(C(C)C)c(O)cc2O)c1-c1ccc(CN2CCOCC2)cc1 [AUY922]; conditions: top dose 0.256 µM; top dose inferred
Experimental: as §1

LFM-A13 = compound: C/C(O)=C(\C#N)C(=O)Nc1cc(Br)ccc1Br [LFM-A13]; conditions: top dose 16 µM; top dose inferred
Experimental: as §1

Gemcitabine = compound: Nc1ccn([C@@H]2O[C@H](CO)[C@@H](O)C2(F)F)c(=O)n1 [Gemcitabine]; conditions: top dose 1.024 µM
Experimental: as §1

MP470 = compound: S=C(NCc1ccc2c(c1)OCO2)N1CCN(c2ncnc3c2oc2ccccc23)CC1 [MP470]; conditions: top dose 20 µM; top dose inferred
Experimental: as §1

[1] = top dose 1.024 µM, screen: GDSC drug entry 150
[2] = top dose 10 µM, screen: GDSC drug entry 1502

| Cell Line | AUC (TW-37) | IC50 (TW-37) | AUC (Bicalutamide; [1]) | IC50 (Bicalutamide; [1]) | AUC (Bicalutamide; [2]) | IC50 (Bicalutamide; [2]) | AUC (KIN001-270) | IC50 (KIN001-270) | AUC (T0901317) | IC50 (T0901317) | AUC (AUY922) | IC50 (AUY922) | AUC (LFM-A13) | IC50 (LFM-A13) | AUC (Gemcitabine) | IC50 (Gemcitabine) | AUC (MP470) | IC50 (MP470) |
| --- | --- | --- | --- | --- | --- | --- | --- | --- | --- | --- | --- | --- | --- | --- | --- | --- | --- | --- |
| SBC-3 (small cell lung carcinoma, adherent) | 0.356 | 130 nM | 0.989 | > 1020 nM | 0.934 | > 10000 nM | 0.921 | > 20000 nM | 0.976 | > 10200 nM | 0.431 | 10.5 nM | 0.974 | > 16000 nM | 0.256 | 13.8 nM | 0.78 | 7480 nM |
| NUGC-3 (stomach, adherent) | 0.712 | 1350 nM | 0.984 | > 1020 nM | 0.976 | > 10000 nM | 0.974 | > 20000 nM | 0.97 | > 10200 nM | 0.66 | 47.3 nM | 0.972 | > 16000 nM | 0.314 | 18 nM | 0.931 | > 20000 nM |
| HTC-C3 (thyroid, adherent) | 0.709 | 1320 nM | 0.984 | > 1020 nM | 0.957 | > 10000 nM | 0.983 | > 20000 nM | 0.894 | > 10200 nM | 0.605 | 32.2 nM | 0.959 | > 16000 nM | 0.786 | 500 nM | 0.911 | > 20000 nM |
| HLE (liver, adherent) | 0.436 | 211 nM | 0.981 | > 1020 nM | 0.987 | > 10000 nM | 0.945 | > 20000 nM | 0.989 | > 10200 nM | 0.483 | 14.4 nM | 0.971 | > 16000 nM | 0.145 | 5.52 nM | 0.878 | 18300 nM |
| NCI-H1944 (lung adenocarcinoma, adherent) | 0.311 | 88.8 nM | 0.985 | > 1020 nM | 0.984 | > 10000 nM | 0.969 | > 20000 nM | 0.916 | > 10200 nM | 0.544 | 21.2 nM | 0.972 | > 16000 nM | 0.217 | 8.83 nM | 0.863 | 19200 nM |
| MDA-MB-175-VII (breast, adherent) | 0.571 | 498 nM | 0.986 | > 1020 nM | 0.986 | > 10000 nM | 0.986 | > 20000 nM | 0.983 | > 10200 nM | 0.848 | 221 nM | 0.977 | > 16000 nM | 0.885 | > 1020 nM | 0.93 | > 20000 nM |
| J82 (bladder, adherent) | 0.697 | 1120 nM | 0.987 | > 1020 nM | 0.981 | > 10000 nM | 0.983 | > 20000 nM | 0.986 | > 10200 nM | 0.52 | 18.2 nM | 0.958 | > 16000 nM | 0.211 | 9.07 nM | 0.979 | > 20000 nM |
| SW620 (large intestine, adherent) | 0.622 | 648 nM | 0.989 | > 1020 nM | 0.989 | > 10000 nM | 0.985 | > 20000 nM | 0.975 | > 10200 nM | 0.451 | 12 nM | 0.988 | > 16000 nM | 0.276 | 16.3 nM | 0.958 | > 20000 nM |
| NCI-H196 (small cell lung carcinoma, adherent) | 0.678 | 1000 nM | 0.988 | > 1020 nM | 0.987 | > 10000 nM | 0.984 | > 20000 nM | 0.988 | > 10200 nM | 0.945 | > 256 nM | 0.987 | > 16000 nM | 0.973 | > 1020 nM | 0.915 | > 20000 nM |
| NCI-H2009 (lung adenocarcinoma, adherent) | 0.533 | 386 nM | 0.987 | > 1020 nM | 0.982 | > 10000 nM | 0.981 | > 20000 nM | 0.98 | > 10200 nM | 0.473 | 13.5 nM | 0.978 | > 16000 nM | 0.161 | 5.41 nM | 0.896 | > 20000 nM |
| GCT (soft tissue, adherent) | 0.456 | 239 nM | 0.989 | > 1020 nM | 0.986 | > 10000 nM | 0.985 | > 20000 nM | 0.989 | > 10200 nM | 0.665 | 44.4 nM | 0.949 | > 16000 nM | 0.76 | 338 nM | 0.975 | > 20000 nM |
| SK-LU-1 (lung adenocarcinoma, adherent) | 0.607 | 668 nM | 0.98 | > 1020 nM | 0.938 | > 10000 nM | 0.955 | > 20000 nM | 0.98 | > 10200 nM | 0.463 | 12.3 nM | 0.904 | > 16000 nM | 0.097 | < 4 nM | 0.971 | > 20000 nM |
| KYSE-270 (oesophagus, adherent) | 0.477 | 273 nM | 0.983 | > 1020 nM | 0.985 | > 10000 nM | 0.97 | > 20000 nM | 0.978 | > 10200 nM | 0.479 | 14.2 nM | 0.973 | > 16000 nM | 0.103 | 4.37 nM | 0.951 | > 20000 nM |
| SK-MES-1 (lung squamous cell carcinoma, adherent) | 0.681 | – | 0.984 | > 1020 nM | 0.954 | > 10000 nM | 0.981 | > 20000 nM | 0.985 | > 10200 nM | 0.415 | 9.17 nM | 0.938 | > 16000 nM | 0.132 | < 4 nM | 0.893 | > 20000 nM |
| NCI-H1993 (lung adenocarcinoma, adherent) | 0.669 | 1080 nM | 0.983 | > 1020 nM | 0.981 | > 10000 nM | 0.969 | > 20000 nM | 0.983 | > 10200 nM | 0.924 | > 256 nM | 0.953 | > 16000 nM | 0.983 | > 1020 nM | 0.982 | > 20000 nM |
| HCC-827 (lung adenocarcinoma, adherent) | 0.503 | 320 nM | 0.985 | > 1020 nM | 0.982 | > 10000 nM | 0.982 | > 20000 nM | 0.984 | > 10200 nM | 0.708 | 68.1 nM | 0.97 | > 16000 nM | 0.97 | > 1020 nM | 0.973 | > 20000 nM |
| NCI-H596 (lung adenocarcinoma, adherent) | 0.806 | 3510 nM | 0.982 | > 1020 nM | 0.977 | > 10000 nM | 0.98 | > 20000 nM | 0.982 | > 10200 nM | 0.572 | 26.7 nM | 0.955 | > 16000 nM | 0.621 | 152 nM | 0.982 | > 20000 nM |
| NCI-H2030 (lung adenocarcinoma, adherent) | 0.688 | 1140 nM | 0.983 | > 1020 nM | 0.979 | > 10000 nM | 0.96 | > 20000 nM | 0.974 | > 10200 nM | 0.427 | 9.84 nM | 0.947 | > 16000 nM | 0.408 | 34.5 nM | 0.969 | > 20000 nM |
| NCI-H661 (large cell lung carcinoma, adherent) | 0.466 | 247 nM | 0.981 | > 1020 nM | 0.963 | > 10000 nM | 0.968 | > 20000 nM | 0.954 | > 10200 nM | 0.694 | 63.6 nM | 0.978 | > 16000 nM | 0.312 | 17 nM | 0.825 | 15600 nM |
| SW1573 (lung adenocarcinoma, adherent) | 0.512 | 341 nM | 0.981 | > 1020 nM | 0.966 | > 10000 nM | 0.978 | > 20000 nM | 0.975 | > 10200 nM | 0.662 | 52.8 nM | 0.945 | > 16000 nM | 0.765 | 506 nM | 0.907 | > 20000 nM |
| A204 (rhabdomyosarcoma, adherent) | 0.685 | 1210 nM | 0.971 | > 1020 nM | 0.958 | > 10000 nM | 0.972 | > 20000 nM | 0.971 | > 10200 nM | 0.464 | 12.4 nM | 0.922 | > 16000 nM | 0.296 | 14.3 nM | 0.92 | > 20000 nM |
| CAL-54 (kidney, adherent) | 0.403 | 163 nM | 0.984 | > 1020 nM | 0.982 | > 10000 nM | 0.969 | > 20000 nM | 0.984 | > 10200 nM | 0.936 | > 256 nM | 0.839 | 13200 nM | 0.729 | 320 nM | 0.985 | > 20000 nM |
| NCI-H650 (lung adenocarcinoma, adherent) | 0.617 | 677 nM | 0.986 | > 1020 nM | 0.984 | > 10000 nM | 0.977 | > 20000 nM | 0.986 | > 10200 nM | 0.541 | 21 nM | 0.984 | > 16000 nM | 0.669 | 200 nM | 0.96 | > 20000 nM |
| 786-0 (kidney, adherent) | 0.828 | 2760 nM | 0.988 | > 1020 nM | 0.986 | > 10000 nM | 0.968 | > 20000 nM | 0.974 | > 10200 nM | 0.291 | 4.35 nM | 0.941 | > 16000 nM | 0.027 | < 4 nM | 0.949 | > 20000 nM |
| NCI-H647 (non-small cell lung carcinoma, adherent) | 0.543 | 413 nM | 0.985 | > 1020 nM | 0.59 | 1120 nM | 0.976 | > 20000 nM | 0.905 | > 10200 nM | 0.63 | 37.1 nM | 0.954 | > 16000 nM | 0.417 | 37.4 nM | 0.66 | 3560 nM |
